From US20170043031A1, “IGF-1R ANTIBODY-DRUG-CONJUGATE AND ITS USE FOR THE TREATMENT OF CANCER” (PIERRE FABRE MEDICAMENT, priority 2014, published 2017)

Assays:
IGF-1R on MCF-7 cells = target: T1, IGF-1R on MCF-7 cells (Homo sapiens, UniProt P08069); experiment: IGF-1R internalization by FACS on MCF-7 cells (4° C. vs 37° C., 4 h); type: cell-based; conditions: MCF-7, 10 μg/ml, 4 h (Table 13c)
T1 construct: all generated antibodies are capable to recognize the native IGF-1R form; host or cells: MCF-7
Protocol: (§1) MCF-7 cells were incubated with 10 μg/ml of chimeric antibodies at 4° C. for 20 min. Then, cells were washed and incubated at 4° C. or 37° C. for 4 h. The quantity of cell-surface bound antibody was determined using a secondary antibody. The ΔMFI defined as the difference between MFI measured at 4° C. and MFI measured at 37° C. after a 4 hour incubation time corresponded to the quantity of internalized Ab. The percentage of internalization at 10 μg/ml of Ab were calculated as followed 100*(MFI at 4° C.−MFI at 37° C.)/MFI at 4° C. and presented in Table 11.
as §1, with “The capacity of the mAb hz208F2 VH3NL3 to be internalized was assessed by flow cytometry. MCF-7” for “MCF-7”, “of” for “of chimeric”, “13.” for “11.”
as §1, with “of humanized” for “of chimeric”, “secondary antibody on a FacsCalibur Flow cytometer (Becton Dickinson).” for “secondary antibody.”, “Ab was” for “Ab were”, “C. The humanized antibody hz208F2 H077/L018 is able to induce a significant internalization of IGF-1R.” for “C. and presented in Table 11.”

[1] = target: T2, IGF-1R on MCF-7 cell line (Homo sapiens, UniProt P08069); experiment: FACS binding on MCF-7 in buffers at different pH; conditions: MCF-7, pH ranging from 5 to 8
T2 construct: all generated antibodies are capable to recognize the native IGF-1R form; host or cells: MCF-7
Protocol: In order to investigate whether some of our antibodies display such a property and to correlate this property to cytotoxic activity, the binding of the murine anti-hIGF-1R Mabs on MCF-7 cell line was done in buffers at different pH. Increasing concentrations of murine mAbs were incubated on MCF-7 cell line for 20 min at 4° C. in different pH ranging from 5 to 8. Cells were then washed 3 times and incubated with the appropriate secondary antibody coupled with Alexa 488 in FACS buffer. Cells were incubated for 20 additional minutes at 4° C. in the dark and then washed 3 times in FACS buffer. The binding of anti-hIGF-1R antibodies was immediately performed on viable cells which were identified using propidium iodide that stained dead cells. The binding EC50 expressed in molarity (M) was calculated using a nonlinear regression analysis (GraphPad Prims 4.0).
The binding of the humanized anti-IGF-1R Mabs on MCF-7 cell line was done in buffers at different pH. Increasing concentrations of humanized mAbs were incubated on MCF-7 cell line for 20 min at 4° C. in different pH ranging from 5 to 8. Cells were then washed 3 times and incubated with the appropriate secondary antibody coupled with Alexa 488 in FACS buffer. […] The binding EC50 expressed in molarity (M) was calculated using a nonlinear regression analysis (GraphPad Prims 4.0).

B1: hz208F2 H077/L018: humanized 208F2 variant, heavy chain SEQ ID No. 81, light chain SEQ ID No. 59 (antibody)
heavy: QVQLVQSGAEVKKPGASVKVSCKASGYTFTSYYIHWVRQAPGQGLEWMGWIWPGDGSTKYAQKFQGRVTMTRDTSTSTVYMELSSLRSEDTAVYFCASPMITPNYAMDYWGQGTLVTVSSASTKGPSVFPLAPSSKSTSGGTAALGCLVKDYFPEPVTVSWNSGALTSGVHTFPAVLQSSGLYSLSSVVTVPSSSLGTQTYICNVNHKPSNTKVDKRV[human IgG1 Fc not written out]
light: DIQMTQSPSSLSASVGDRVTITCRASQDISKYLNWYQQKPGKAPKLLIYYTSRLQSGVPSRFSGRGSGTDYSLTISSLQPEDFATYFCQQGSTLPYTFGGGTKVEIKRTVAAPSVFIFPPSDEQLKSGTASVVCLLNNFYPREAKVQWKVDNALQSGNSQESVTEQDSKDSTYSLSSTLTLSKADYEKHKVYACEVTHQGLSSPVTKSFNRGEC
modifications: hz208F2 heavy chain H077 full length; hz208F2 light chain L018 full length
% Internalization (IGF-1R on MCF-7 cells): 88%
ΔMFI (IGF-1R on MCF-7 cells): 468
binding capacity at acidic pH [1]: Acidic pH decreases binding capacity
